# Results: PubChem BioAssay (Tox21)
# “And” between values parts separate entries of the source, which are not always exact repeats. Identical values can stand only once. Inconclusive means that the source gave no clear call. Such entries were picked first, then a sample of the others. For some assays here: Potencies beside an inconclusive call are fits to weak or partial responses and may not hold up. More than one record can exist for a structure, and the calls need not agree. The source made the active and inactive calls. Unless noted, calls follow the shape of the dose curve; as a rule, active = well fitted curve in the direction sought with a large enough effect in the repeat runs; inconclusive = weak or mixed curves; inactive = no such curve, though single readings can be large; an effect the other way counts as inactive or inconclusive.
# Assays:
# [1] = molecular target: Glucocorticoid receptor (Homo sapiens) (UniProt P04150); test: qHTS assay to identify small molecule antagonists of the glucocorticoid receptor (GR) signaling pathway (AID 720692; active = well fitted inhibition curve with a large enough effect in the signal ratio in the repeat runs, not every such curve was filed as active; inconclusive = weak or mixed curves, or effect the other way; inactive = no such curve, though single readings can be large or run the other way; the % refers to the signal ratio; also: potency is read from the fitted curve at half-maximal effect; as to activity change, negative = inhibition: % is scaled to controls: 0 for no effect and ±100 for the full control effect); conditions: GR-bla HeLa, beta-lactamase FRET ratio, dexamethasone-stimulated, 18 h; activity change, negative = inhibition: at 58.5 µM (top of the series) unless noted
# How it was run: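 Fluorescence from cleaved LiveBLAzer B/G FRET substrate reports GRE-driven beta-lactamase in HeLa cells; compounds are tested against 5 nM dexamethasone (final) over 18 h at 37 C, substrate incubation 2 h at room temperature.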
# [2] = qHTS assay for identifying genotoxic compounds that show differential cytotoxicity against isogenic chicken DT40 cell lines with known DNA damage response pathways - wild type cell line (AID 743012); conditions: DT40 wild type chicken cells viability, CellTiter-Glo, 40 h; activity change, negative = cytotoxicity: at 68.4 µM (top of the series) unless noted; also: nearly all actives have a fitted effect of over 60% in size; also: potency is read from the fitted curve at half-maximal effect; as to activity change, negative = cytotoxicity: % is scaled to controls: 0 for no effect and ±100 for the full control effect
# How it was run: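 Quantitative HTS on parental DT40 cells: 40 h compound treatment at 37 C/5% CO2, with viability then determined by CellTiter-Glo luminescence. Values serve as the DNA repair-proficient reference for differential cytotoxicity.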
# [3] = molecular target: Peroxisome proliferator-activated receptor gamma (Homo sapiens) (UniProt P37231); test: qHTS assay to identify small molecule antagonists of the peroxisome proliferator-activated receptor gamma (PPARg) signaling pathway (AID 743191; calls by dose curve; also: % is scaled to controls: 0 for no effect and ±100 for the full control effect; nearly all actives have a fitted effect of over 30% in size); conditions: HEK293H PPARg-UAS-bla, beta-lactamase ratio, antagonist, 17 h; ratio activity, negative = inhibition: at 62.6 µM (top of the series) unless noted
# How it was run: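 GeneBLAzer PPARg UAS-bla HEK293H cells carrying a UAS-driven beta-lactamase reporter were plated at 3000 cells/well, preincubated 5 h at 37C, then given compound for 17 h at 37C; LiveBLAzer B/G FRET substrate was read after 1 h at room temperature.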
# [4] = qHTS assay to identify small molecule antagonists of the peroxisome proliferator-activated receptor delta (PPARd) signaling pathway - cell viability counter screen (AID 743213); conditions: PPARd-bla HEK293H viability, CellTiter-Glo luminescence, 17 h; viability change, negative = cytotoxic: at 62 µM (top of the series) unless noted; also: nearly all actives have a fitted effect of over 50% in size; also: potency is read from the fitted curve at half-maximal effect; as to viability change, negative = cytotoxic: % is scaled to controls: 0 for no effect and ±100 for the full control effect
# How it was run: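 PPARd-bla HEK293H cells (3000/well) got compound plus 300 nM L165041 agonist for 17 h at 37 C. Viability in the same wells came from CellTiter-Glo luminescence after 30 min at room temperature.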
# [5] = molecular target: Thyrotropin receptor (Homo sapiens) (UniProt P16473); test: qHTS assay to identify small molecule agonists of the thyroid stimulating hormone receptor (TSHR) signaling pathway (AID 1224843; calls by dose curve; also: nearly all actives have a fitted effect of over 45% in size; also: potency is read from the fitted curve at half-maximal effect); conditions: TSHR-HEK293 cells, cAMP HTRF, agonist mode, 30 min; activation: at 92.4 µM (top of the series) unless noted
# How it was run: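 TSHR-expressing HEK293 cells (800 per well) were exposed to compounds for 30 min at room temperature. cAMP was then detected by HTRF competition with cAMP-d2 and anti-cAMP cryptate, read after 1 h at room temperature. Fifteen concentrations, triplicate.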
# [6] = molecular target: Cytochrome P450 1A2 (Homo sapiens) (UniProt P05177); test: Cytochrome P450 Family 1 Subfamily A Member 2 (CYP1A2) small molecule antagonists: luciferase reporter qHTS assay (AID 1671199); also: nearly all actives have a fitted effect of over 50% in size; also: potency is read from the fitted curve at half-maximal effect
# How it was run: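 Signal from luciferin formed by CYP1A2 from a proluciferin substrate is read as luminescence, expressed in relative luminescence units. Compounds sit with enzyme 10 min, NADPH-driven reaction runs 1 h, all at room temperature.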
# [7] = qHTS assay for small molecule disruptors of the mitochondrial membrane potential (AID 720635); conditions: HepG2 mitochondrial membrane potential, Mito-MPS dye ratio; ratio activity, negative = MMP loss: at 83.2 µM (top of the series) unless noted; also: potency is read from the fitted curve at half-maximal effect
# How it was run: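 HepG2 cells (2,000/well) attached overnight at 37C, then took compound for 1 hr at 37C, 5% CO2. Mito-MPS dye was added for 30 min; fluorescence was read at 490/535 nm (monomers) and 540/590 nm (aggregates).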
# [8] = qHTS assay to identify small molecule antagonists of the estrogen receptor alpha (ER-alpha) signaling pathway - cell viability counter screen (AID 743074; calls by dose curve;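 also: HEK293 cells carrying ER-alpha-UAS-bla reporter stimulated with 17beta-estradiol; potency is read from the fitted curve at half-maximal effect; nearly all actives have a fitted effect of over 45% in size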)
# [9] = qHTS assay for small molecule agonists of the antioxidant response element (ARE) signaling pathway (AID 743202; active = well fitted activation curve with a large enough effect in the signal ratio in the repeat runs, not every such curve was filed as active; inconclusive = weak or mixed curves, or effect the other way; inactive = no such curve, though single readings can be large or run the other way; the % refers to the signal ratio; also: potency is read from the fitted curve at half-maximal effect); conditions: HepG2 ARE-bla reporter, beta-lactamase FRET, 16 h; activation: at 73.3 µM (top of the series) unless noted
# How it was run: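 Read-out: LiveBLAzer B/G FRET substrate fluorescence after 2 h at room temperature, following 16 h compound treatment at 37 C of HepG2 cells carrying an ARE-driven beta-lactamase reporter.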
# [10] = molecular target: Cytochrome P450 2D6 (Homo sapiens) (UniProt P10635); test: Cytochrome P450 Family 2 Subfamily D Member 6 (CYP2D6) small molecule antagonists: luciferase reporter qHTS assay (AID 1671196); also: potency is read from the fitted curve at half-maximal effect; nearly all actives have a fitted effect of over 50% in size
# How it was run: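 Inhibition of CYP2D6 was gauged by loss of luminescence, since light produced tracks the luciferin generated from a proluciferin substrate. A 10 min room-temperature preincubation preceded 1 h NADPH-supported turnover.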
# [11] = molecular target: Cytochrome P450 2C19 (Homo sapiens) (UniProt P33261); test: Cytochrome P450 Family 2 Subfamily C Member 19 (CYP2C19) small molecule antagonists: luciferase reporter qHTS assay (AID 1671197); also: nearly all actives have a fitted effect of over 65% in size; also: potency is read from the fitted curve at half-maximal effect
# How it was run: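 P450-Glo CYP2C19 system: enzyme-substrate mix with compound 10 min at room temperature, then NADPH regeneration solution, 1 h at 37C. Proluciferin-to-luciferin conversion detected by luminescence after 20 min with detection reagent; ketoconazole as positive control.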
# [12] = molecular target: Cytochrome P450 2C9 (Homo sapiens) (UniProt P11712); test: Cytochrome P450 Family 2 Subfamily C Member 9 (CYP2C9) small molecule antagonists: luciferase reporter qHTS assay (AID 1671198); also: nearly all actives have a fitted effect of over 50% in size; also: potency is read from the fitted curve at half-maximal effect
# How it was run: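 CYP2C9 activity was measured with a P450-Glo proluciferin substrate. Enzyme–substrate mix was held with compound for 10 min at room temperature, then NADPH regeneration solution was added for 1 h at 37C. Luciferin product was read as luminescence.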
# [13] = qHTS assay to identify small molecule agonists of the progesterone receptor (PR) signaling pathway - cell viability counter screen (AID 1346799; calls by dose curve; also: % is scaled to controls: 0 for no effect and ±100 for the full control effect; nearly all actives have a fitted effect of over 45% in size)
# How it was run: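 Cytotoxicity in PR-bla HEK293T cells: 16 h compound, 37C; CellTiter-Glo added post-FRET read; luminescence after 30 min RT.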
# [14] = qHTS assay to identify small molecule agonists of H2AX (AID 1224845; active = well fitted activation curve with a large enough effect in the signal ratio in the repeat runs, not every such curve was filed as active; inconclusive = weak or mixed curves; the % refers to the signal ratio; also: potency is read from the fitted curve at half-maximal effect); conditions: CHO-K1 phospho-H2AX Ser139 HTRF, 3 h; activation (H2AX phosphorylation): at 154 µM (top of the series) unless noted
# How it was run: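 Wild-type CHO-K1 cells plated overnight, then exposed 3 hr at 37C to compounds at 15 concentrations (0.76% DMSO). Lysed, then HTRF anti-pH2AX(S139)-cryptate/anti-H2AX-d2 detection after 24 hr at room temperature; emissions 665 and 620 nm.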
# [15] = qHTS assay to identify small molecule antagonists of the thyroid receptor (TR) signaling pathway - cell viability counter screen (AID 743064); conditions: GH3.TRE-Luc viability, CellTiter-Fluor, 24 h; activity change, negative = cytotoxic: at 70.3 µM (top of the series) unless noted; also: nearly all actives have a fitted effect of over 50% in size; also: potency is read from the fitted curve at half-maximal effect
# How it was run: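 Counter screen for cytotoxicity: compound plus T3 (1 nM final) on GH3.TRE-Luc cells, 23.5 h at 37 °C, then fluorescence viability readout with CellTiter-Fluor.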
# [16] = qHTS assay to identify small molecule antagonists of the progesterone receptor (PR) signaling pathway - cell viability counter screen (AID 1346798)
# How it was run: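 ATP content as viability readout: CellTiter-Glo luminescence, 30 min room temperature, in PR-UAS-bla HEK293T cells after 16 hr compound/R5020 treatment at 37C and 5% CO2.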
# [17] = qHTS assay for small molecule agonists of the p53 signaling pathway (AID 651631; calls by dose curve; also: % is scaled to controls: 0 for no effect and ±100 for the full control effect; nearly all actives have a fitted effect of over 15% in size); conditions: HCT-116 p53RE-bla reporter, beta-lactamase FRET ratio, 16 h; activation: at 73.3 µM (top of the series) unless noted
# How it was run: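 Stably transfected HCT-116 cells (beta-lactamase behind p53 response elements) get compounds after a 5 h settling period; 16 h later at 37 °C, FRET substrate is loaded and fluorescence read after 2 h.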
# [18] = qHTS assay to identify small molecule agonists of the hypoxia (HIF-1) signaling pathway - cell viability counter screen (AID 1224844; calls by dose curve)
# How it was run: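 Luminescent ATP content (CellTiter-Glo, 30 min, room temperature) served as the viability measure in HRE-bla ME-180 cells exposed to compounds for 17 hrs in low-serum medium (0.5% dialyzed FBS).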
# [19] = molecular target: Vitamin D3 receptor (Homo sapiens) (UniProt P11473); test: qHTS assay to identify small molecule antagonists of the vitamin D receptor (VDR) signaling pathway (AID 743223; active = well fitted inhibition curve with a large enough effect in the signal ratio in the repeat runs, not every such curve was filed as active; inconclusive = weak or mixed curves, or effect the other way; inactive = no such curve, though single readings can be large or run the other way; the % refers to the signal ratio; also: % is scaled to controls: 0 for no effect and ±100 for the full control effect); conditions: VDR-UAS-bla HEK293T, beta-lactamase FRET ratio, 16 h; activity change, negative = inhibition: at 61 µM (top of the series) unless noted
# How it was run: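 Beta-lactamase activity in VDR-bla cells is measured by FRET substrate fluorescence (2 h, room temperature) after cells spend 16 h at 37C with test compound and 3 nM final 1alpha,25-dihydroxyvitamin D3.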
# Tags tell the direction and shape of the fitted curve or compound fluorescence and quenching.
# Chain of UniProt P10635 (P10635 whole entry, looked up): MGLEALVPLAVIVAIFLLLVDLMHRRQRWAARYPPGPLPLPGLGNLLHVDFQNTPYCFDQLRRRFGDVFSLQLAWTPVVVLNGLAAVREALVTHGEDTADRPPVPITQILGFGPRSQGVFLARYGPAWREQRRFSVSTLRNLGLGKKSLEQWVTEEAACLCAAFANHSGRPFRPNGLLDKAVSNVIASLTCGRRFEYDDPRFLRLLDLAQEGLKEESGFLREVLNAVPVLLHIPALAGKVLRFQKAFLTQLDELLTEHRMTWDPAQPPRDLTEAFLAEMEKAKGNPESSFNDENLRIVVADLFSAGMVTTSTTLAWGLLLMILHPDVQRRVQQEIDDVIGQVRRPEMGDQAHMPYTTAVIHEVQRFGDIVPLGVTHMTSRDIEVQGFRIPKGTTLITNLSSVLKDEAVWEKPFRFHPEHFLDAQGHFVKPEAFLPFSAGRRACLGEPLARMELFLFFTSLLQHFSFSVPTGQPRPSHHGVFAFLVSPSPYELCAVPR
# Chain of UniProt P16473 (P16473 whole entry, looked up): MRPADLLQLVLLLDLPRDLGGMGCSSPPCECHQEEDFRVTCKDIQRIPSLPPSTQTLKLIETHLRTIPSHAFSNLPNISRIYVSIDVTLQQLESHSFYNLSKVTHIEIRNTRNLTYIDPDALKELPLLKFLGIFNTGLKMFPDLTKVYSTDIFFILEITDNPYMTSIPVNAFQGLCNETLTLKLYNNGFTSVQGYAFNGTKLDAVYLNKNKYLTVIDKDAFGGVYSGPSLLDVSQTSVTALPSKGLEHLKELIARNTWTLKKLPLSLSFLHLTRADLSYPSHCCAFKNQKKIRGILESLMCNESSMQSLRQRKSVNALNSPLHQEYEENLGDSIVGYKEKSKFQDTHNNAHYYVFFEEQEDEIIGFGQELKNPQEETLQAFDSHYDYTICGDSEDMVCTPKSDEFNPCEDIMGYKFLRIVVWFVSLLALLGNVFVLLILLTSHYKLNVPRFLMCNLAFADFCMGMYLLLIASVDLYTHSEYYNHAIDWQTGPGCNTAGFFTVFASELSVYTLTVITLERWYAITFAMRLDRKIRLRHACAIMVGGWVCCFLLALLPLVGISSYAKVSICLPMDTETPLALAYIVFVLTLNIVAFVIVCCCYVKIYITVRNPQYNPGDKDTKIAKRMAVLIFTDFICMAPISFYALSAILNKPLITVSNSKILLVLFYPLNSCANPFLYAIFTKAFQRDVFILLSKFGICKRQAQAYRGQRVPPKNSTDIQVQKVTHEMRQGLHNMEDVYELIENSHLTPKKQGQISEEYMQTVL
# Chain of UniProt P05177 (P05177 whole entry, looked up): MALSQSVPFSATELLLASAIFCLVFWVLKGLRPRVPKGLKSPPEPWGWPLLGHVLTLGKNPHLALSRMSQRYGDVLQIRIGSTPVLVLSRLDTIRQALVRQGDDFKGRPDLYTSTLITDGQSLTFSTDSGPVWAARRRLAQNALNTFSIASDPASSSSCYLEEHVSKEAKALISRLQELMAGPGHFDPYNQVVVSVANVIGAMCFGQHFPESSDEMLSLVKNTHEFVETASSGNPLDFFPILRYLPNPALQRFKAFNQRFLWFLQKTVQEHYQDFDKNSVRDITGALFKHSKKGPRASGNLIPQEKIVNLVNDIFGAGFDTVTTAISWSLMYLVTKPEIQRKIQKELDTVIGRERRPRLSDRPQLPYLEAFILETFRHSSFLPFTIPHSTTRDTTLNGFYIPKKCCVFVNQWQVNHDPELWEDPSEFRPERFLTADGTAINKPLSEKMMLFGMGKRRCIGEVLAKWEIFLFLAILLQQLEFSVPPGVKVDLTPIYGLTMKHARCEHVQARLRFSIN
# Chain of UniProt P04150 (P04150 whole entry, looked up): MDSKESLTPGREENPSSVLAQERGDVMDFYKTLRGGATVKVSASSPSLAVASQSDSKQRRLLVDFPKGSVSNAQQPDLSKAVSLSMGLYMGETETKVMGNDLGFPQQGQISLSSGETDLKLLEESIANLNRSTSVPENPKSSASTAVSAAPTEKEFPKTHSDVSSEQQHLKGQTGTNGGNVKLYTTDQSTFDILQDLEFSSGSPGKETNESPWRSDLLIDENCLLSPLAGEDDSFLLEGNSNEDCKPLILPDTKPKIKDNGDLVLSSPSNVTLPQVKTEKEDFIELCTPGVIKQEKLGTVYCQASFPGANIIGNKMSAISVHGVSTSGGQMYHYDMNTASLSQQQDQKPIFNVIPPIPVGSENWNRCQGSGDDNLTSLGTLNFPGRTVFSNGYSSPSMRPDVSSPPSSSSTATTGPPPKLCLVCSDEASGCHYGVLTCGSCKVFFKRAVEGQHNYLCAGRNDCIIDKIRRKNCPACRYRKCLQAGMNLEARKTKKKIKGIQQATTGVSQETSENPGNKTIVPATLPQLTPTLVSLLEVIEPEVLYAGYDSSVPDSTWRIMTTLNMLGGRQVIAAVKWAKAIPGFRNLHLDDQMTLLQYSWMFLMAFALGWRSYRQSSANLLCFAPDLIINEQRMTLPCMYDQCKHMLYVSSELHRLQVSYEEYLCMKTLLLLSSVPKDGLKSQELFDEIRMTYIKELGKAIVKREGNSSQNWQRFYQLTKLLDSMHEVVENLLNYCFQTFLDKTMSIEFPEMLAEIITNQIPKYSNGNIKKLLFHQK
# Chain of UniProt P33261 (P33261 whole entry, looked up): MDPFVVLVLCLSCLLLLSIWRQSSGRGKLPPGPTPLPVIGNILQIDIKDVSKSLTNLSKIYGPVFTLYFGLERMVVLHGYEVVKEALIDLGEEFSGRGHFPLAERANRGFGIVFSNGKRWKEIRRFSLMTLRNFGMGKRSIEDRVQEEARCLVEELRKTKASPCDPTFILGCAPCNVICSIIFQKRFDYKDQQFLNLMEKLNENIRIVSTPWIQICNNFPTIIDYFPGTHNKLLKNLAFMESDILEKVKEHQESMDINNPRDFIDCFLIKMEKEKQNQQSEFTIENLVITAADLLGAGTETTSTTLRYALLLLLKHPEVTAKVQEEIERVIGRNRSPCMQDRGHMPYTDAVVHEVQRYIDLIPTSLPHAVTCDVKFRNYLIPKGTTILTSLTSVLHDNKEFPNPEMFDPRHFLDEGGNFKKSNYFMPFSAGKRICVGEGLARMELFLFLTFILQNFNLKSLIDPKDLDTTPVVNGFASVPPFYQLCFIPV
# Chain of UniProt P37231 (P37231 whole entry, looked up): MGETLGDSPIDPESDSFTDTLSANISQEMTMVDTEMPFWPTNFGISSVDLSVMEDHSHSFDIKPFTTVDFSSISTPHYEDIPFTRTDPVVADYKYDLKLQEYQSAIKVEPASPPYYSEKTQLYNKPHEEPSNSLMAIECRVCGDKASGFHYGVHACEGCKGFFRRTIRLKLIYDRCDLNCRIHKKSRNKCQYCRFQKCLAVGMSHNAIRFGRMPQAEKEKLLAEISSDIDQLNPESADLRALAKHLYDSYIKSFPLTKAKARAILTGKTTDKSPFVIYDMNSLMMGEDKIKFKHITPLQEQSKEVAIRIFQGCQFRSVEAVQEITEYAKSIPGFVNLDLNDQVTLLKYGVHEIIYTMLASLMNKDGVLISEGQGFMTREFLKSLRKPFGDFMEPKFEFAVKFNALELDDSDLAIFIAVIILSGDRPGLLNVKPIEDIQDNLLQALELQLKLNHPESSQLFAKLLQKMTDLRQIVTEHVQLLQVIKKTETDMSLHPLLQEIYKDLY
# Chain of UniProt P11712 (P11712 whole entry, looked up): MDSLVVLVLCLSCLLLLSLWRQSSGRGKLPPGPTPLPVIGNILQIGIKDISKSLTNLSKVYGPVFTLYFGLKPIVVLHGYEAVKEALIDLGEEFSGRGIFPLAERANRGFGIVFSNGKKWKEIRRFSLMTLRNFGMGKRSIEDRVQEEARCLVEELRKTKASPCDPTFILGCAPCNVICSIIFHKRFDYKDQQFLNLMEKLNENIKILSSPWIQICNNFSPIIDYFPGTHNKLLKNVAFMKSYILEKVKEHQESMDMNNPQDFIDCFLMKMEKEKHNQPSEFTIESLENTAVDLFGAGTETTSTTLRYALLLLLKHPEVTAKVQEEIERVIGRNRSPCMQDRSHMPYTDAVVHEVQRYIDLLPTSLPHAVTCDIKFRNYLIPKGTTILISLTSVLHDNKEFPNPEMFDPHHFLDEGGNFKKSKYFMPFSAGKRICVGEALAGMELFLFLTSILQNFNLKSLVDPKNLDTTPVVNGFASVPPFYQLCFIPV
# Chain of UniProt P11473 (P11473 whole entry, looked up): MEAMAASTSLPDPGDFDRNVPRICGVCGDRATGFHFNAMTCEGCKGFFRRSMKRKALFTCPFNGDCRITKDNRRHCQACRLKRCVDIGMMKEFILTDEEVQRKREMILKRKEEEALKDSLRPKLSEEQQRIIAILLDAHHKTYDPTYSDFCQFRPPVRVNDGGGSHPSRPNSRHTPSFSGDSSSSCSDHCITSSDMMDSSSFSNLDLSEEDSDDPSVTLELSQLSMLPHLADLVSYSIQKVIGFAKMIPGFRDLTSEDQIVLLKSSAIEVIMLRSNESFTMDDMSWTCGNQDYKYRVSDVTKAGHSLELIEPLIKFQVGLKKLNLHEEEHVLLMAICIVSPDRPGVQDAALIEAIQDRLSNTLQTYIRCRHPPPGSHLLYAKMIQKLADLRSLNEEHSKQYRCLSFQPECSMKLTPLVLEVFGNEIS
compound,measurement,setting,value
COC(=O)CC(C)=O,Potency,[1],inactive
same,Potency,[2],inactive
same,Potency,[3],inactive
same,Potency,[4],inactive
same,Potency,[5],inactive
same,Potency,[6],inactive
CC(C=O)c1ccccc1 (stereo not given),Potency,[5],"inconclusive: 43.3 µM [activator, partial curve, poor fit]"
same,Potency,[6],"inconclusive: 63.3 µM [inhibitor, partial curve]"
Oc1cn2c(n1)Nc1ccc(Cl)c(Cl)c1C2,Potency,[7],"inconclusive: 188 nM [activator, full curve, poor fit] and inactive"
same,Potency,[1],"inconclusive: 4.25 µM [inhibitor, partial curve, poor fit] and inconclusive: 9.5 nM [inhibitor, full curve]"
same,Potency,[8],"inconclusive: 26.8 µM [rising, single point]"
same,"ratio activity, negative = inhibition",[3],inconclusive: 0.642% [at 29.1 µM]
same,Potency,[9],inconclusive: 2.06 µM
same,Potency,[5],active: 0.73 µM
same,Potency,[10],"inconclusive: 13.5 µM [inhibitor, partial curve]"
same,"activity change, negative = inhibition",[11],inactive: 3% [at 23.6 µM]
same,Potency,[12],"inconclusive: 19 µM [inhibitor, single point]"
O=C1CC[C@H](C(=O)N2CCCCC2)N1,Potency,[7],inactive
same,Potency,[8],"inconclusive: 23.9 µM [rising, single point]"
same,"ratio activity, negative = inhibition",[3],inconclusive: 14.6%
same,Potency,[5],inactive
same,Potency,[13],inactive
same,Potency,[11],"inconclusive: 43.6 µM [inhibitor, partial curve, poor fit]"
same,Potency,[6],inactive
NC(CO)C(=O)NNCc1ccc(O)c(O)c1O (stereo not given),"ratio activity, negative = MMP loss",[7],inconclusive: -5.95%
same,Potency,[2],"inconclusive: 33.5 µM [cytotoxic, single point]"
same,Potency,[3],inactive
same,activation,[5],inconclusive: 14% [at 42.5 µM]
same,Potency,[14],"inconclusive: 34.8 µM [falling, partial curve]"
same,Potency,[10],"inconclusive: 17.4 µM [inhibitor, partial curve]"
same,Potency,[11],"inconclusive: 43.6 µM [inhibitor, single point]"
CC(C)(C)NCC(O)c1cc(O)cc(O)c1 (stereo not given),Potency,[15],"inconclusive: 2.11 µM [rising, partial curve, poor fit]"
same,"ratio activity, negative = inhibition",[3],inconclusive: 17.7%
same,Potency,[5],active: 0.596 µM
same,Potency,[10],active: 38.9 µM
same,Potency,[11],inactive
COc1ccc(C#N)cc1,Potency,[5],"inconclusive: 61.1 µM [rising, single point]"
same,Potency,[16],"inconclusive: 77 µM [cytotoxic, single point]"
same,Potency,[6],"inconclusive: 31.7 µM [inhibitor, partial curve]"
CN(C)CCN(C)CCN(C)C,Potency,[17],inactive
same,"ratio activity, negative = MMP loss",[7],inconclusive: -1.81%
same,Potency,[4],"inconclusive: 0.0067 µM [cytotoxic, full curve, poor fit]"
same,Potency,[5],inactive
same,Potency,[13],inactive
same,Potency,[6],inactive
c1cnc(N2CCN(Cc3ccc4c(c3)OCO4)CC2)nc1,activation,[17],inconclusive: -1.42%
same,Potency,[7],inactive
same,Potency,[15],inactive
same,Potency,[3],inactive
same,Potency,[4],inactive
same,Potency,[5],inactive
same,Potency,[6],active: 4.07 µM
C1=CCCC1,Potency,[18],inactive
same,Potency,[10],"inconclusive: 1.59 µM [inhibitor, single point]"
same,Potency,[12],inactive
same,Potency,[6],inactive
CCCCCCC1(C)CCC(=O)O1 (stereo not given),Potency,[7],"inconclusive: 6.11 µM [activator, full curve, poor fit]"
same,Potency,[2],"inconclusive: 30.6 µM [rising, single point]"
same,Potency,[8],"inconclusive: 49 µM [rising, partial curve, poor fit]"
same,Potency,[3],inactive
same,Potency,[4],"inconclusive: 38.9 µM [rising, partial curve]"
same,Potency,[18],inactive
same,Potency,[12],inactive
same,Potency,[6],"inconclusive: 35.6 µM [inhibitor, partial curve]"
Nc1c2c(nc3c1CCC3)CCCC2,activation,[17],inconclusive: 2.48%
same,Potency,[15],"inconclusive: 2.37 µM [rising, partial curve]"
same,Potency,[3],inactive
same,activation,[5],inconclusive: -24.5% [at 42.5 µM]
O=C(O)/C=C\C(=O)O,activation,[9],inconclusive: 23.7% [at 94.8 µM]
same,"activity change, negative = inhibition",[19],inconclusive: 15.5% [at 78.8 µM]
same,activation,[5],inconclusive: -15.6%
same,Potency,[16],"inconclusive: 34.4 µM [rising, partial curve, poor fit]"
same,Potency,[10],"inconclusive: 65.5 µM [inhibitor, partial curve, poor fit]"
same,Potency,[11],"inconclusive: 100 µM [inhibitor, partial curve, poor fit]"
same,Potency,[12],"inconclusive: 73.5 µM [inhibitor, partial curve, poor fit] and inconclusive: 63.3 µM [inhibitor, partial curve, poor fit]"
same,Potency,[6],"inactive and inconclusive: 44.8 µM [inhibitor, partial curve]"
Nc1ccc(F)cc1F,Potency,[4],inactive
same,Potency,[19],inactive
same,Potency,[18],inactive
same,Potency,[6],inactive
